# From the supplement of paper PMC11417369
# ± gives the standard deviation of the averaged measurements. Some of the results follow.
# Test system: PfAP2-EXP AP2 domain (GST-tagged)
# Experiment: gcPBM binding intensity (ln(normalized median fluorescence intensity)); higher = stronger DNA binding
# Method in brief: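 Each value is the highest Masliner-normalised natural-log median intensity across replicate spots of either orientation of a probe. The probes were primer-extended double-stranded 36-bp intergenic genomic sequences on an Agilent 4 × 180k array, alongside negative controls, exposed for 1 h to GST-tagged P. falciparum DNA-binding domains expressed in E. coli. Bound protein was picked up with Alexa488 anti-GST antibody and scanned at 488 nm.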
row,Sequence,gcPBM binding intensity (ln)
1,GTATGATGCATAAGAGTGCATAAGGATATTTCTTCA,8.81 ± 0.085
2,AATTTAAAAAATAACAGTACATAAAATATATACATA [XGTACX_site7917],8.25 ± 0.3
3,TGTGTATATTATATGTGTACATATCAATGTTTATAT [XGTACX_site1885],8.61 ± 0.26
4,TAATATATAACGTGCACACACACATCTACGTATGAA [CACACA_site5080],9.025 ± 0.064
5,TAATATTAAATAAATAAAATATATAATATATATATA [XGTACX_negctrl_site49],9.31 ± 0.23
6,TGGCATTAAAATTTAGTGCATATATCTTAGCATGGG,8.91 ± 0.69
7,TATATATTCATATGTTGTACATAAATACAAATAAGA [XGTACX_site5602],8.47 ± 0.33
8,TGCAGTCTGGAGAAGAGTACACAGTATCTGGTAACA [XGTACX_site2037],8.49 ± 0.16
9,AAAGGTAAATGTAAATAAATAAATAATAAATATATA [GTGCAC_negctrl_site681],8.48 ± 0.39
10,AACAGAATAATACTAAATGAACGATTTCTCTTTATG [GTGCAC_negctrl_site376],8.2 ± 0.52
11,ATTTTTTTTTTTTTTTTTTATATGCTCTCCATGAGA [CACACA_negctrl_site1225],8.19 ± 0.47
12,TAACTTTTATCCTTAATTCATATATAAGATTAAATC [CACACA_negctrl_site669],8.33 ± 0.34
13,ATTAATATGAATAAAACACACATATATAATTTGTAA [CACACA_site1929],8.37 ± 0.35
14,AAAAAAAAAAAGAAATGTACATGAATATTTTAAATG [XGTACX_site4069],8.56 ± 0.4
15,AAAAAGGAGAAACACACACACACACCCATATATATA [CACACA_site905],8.8 ± 0.32
16,CATGCTACATCTTATTGTACTTATCTAATGTTAGTA [XGTACX_site1863],8.62 ± 0.38
17,AGGCAATATTATATATATATATATATATATATATAT [CACACA_negctrl_site826],9.88 ± 0.54
18,TCTTTTTACACCTCTTACATAAAACAAAATAAGGGG [XGTACX_negctrl_site12],9.1 ± 0.13
19,TATACATGTTATGTACATCTAATCACACGTGCAATA [CACACA_negctrl_site1267],8.86 ± 0.26
20,ATATATATAAAACACACACACACATGGTTTAAAACT [CACACA_site4219],8.77 ± 0.38
21,TGTATGTTTGGGTGCACACATAAATATTATATATAG [CACACA_site3397],9.83 ± 1.3
22,TTGTAAATTTACATTTGTACATAAATATATTAATAT [XGTACX_site3969],8.67 ± 0.45
23,ATGAATCCTTAATATGAACACACAAATATATTACAC [CACACA_site7943],8.62 ± 0.39

row,Sequence,gcPBM binding intensity (ln)
1,TCCTTATTTATATAATGTACTTTTTTTTTTCATTTT [XGTACX_site4275],8.71 ± 0.46
2,TTTTTTATTTATCCTATATATTACTAAATGAAGAAC [GTGCAC_negctrl_site333],8.43 ± 0.25
3,TTATTTCAAAGTAAATCAGTAAATATTTGTTTTCTT [CACACA_negctrl_site1572],8.21 ± 0.47
4,TACAAGTATAAATAAGCACACATGTGGATATGTACA [CACACA_site4229],8.96 ± 0.36
5,AAAATATAAAATAATGCACACATAAACAAAAAATCA [CACACA_site8382],8.77 ± 0.26
6,GATAAAATAGGACCATATTCTTTAAAACGATAAAAT [XGTACX_negctrl_site405],8.56 ± 0.39
7,ATATATATATATTTATGTACATATACATAATGTATA [XGTACX_site6387],9.74 ± 0.28
8,TAAAGTTAAAAATTATGTACATATATATTGTATATT [XGTACX_site5528],8.24 ± 0.014
9,TAAGAAGTATTTTCCTGTACATATTTTATATGTATG [XGTACX_site4658],8.28 ± 0.26
10,TTATTTTATATATCACGTACATAGTTGTCTTCTTTT [XGTACX_site2906],8.73 ± 0.44
11,ATATATTTATAATAGGTGCATATGTTTTATTTTTCC [GTGCAC_site9849],8.79 ± 0.19
12,TATATATATTAGTGTGCACACTTTTTATTTTTATCC [CACACA_site8506],9.11 ± 0.042
13,TGTTCTATTCTATTATTATTTACAAATTATAAATAA [GTGCAC_negctrl_site232],8.6 ± 0.4
14,ATATGTGTGTGTATTTGTACCCAATTTTTATATATA [XGTACX_site4948],9.19 ± 0.74
15,AAAAAAAAAAAAAAAAAAAAAATACATATATATATA [CACACA_negctrl_site290],9.79 ± 0.18
16,AAAGAATTATATAAGGTGCACGAATGTTTCTTTAAT,9.115 ± 0.064
17,TGTAATAAATAGTACACACACACATATATATATATT [CACACA_site1388],8.73 ± 0.38
18,AGATATGTTTTTAATTGTACATAAATACACAAATAT [XGTACX_site5981],8.53 ± 0.33
19,TATAAATATATTTATACACACATTAGTGTATACATG [CACACA_site7397],8.5 ± 0.44
20,TCGTGTTAAATTTTTACACACAAACTTGCAATAATT [CACACA_site3824],8.58 ± 0.31
21,AACTATAACTAAAAAAATCACATAAAATATTTTATT [TGCATGCA_negctrl_site363],7.99 ± 0.42
22,AGGTGAAAAATATATAATAATGTAACAAAAAAAAAT [XGTACX_negctrl_site394],8.9 ± 0.46
23,TATATCTTATTTAACACACACAAAGAAAATAGAAAA [CACACA_site3732],8.76 ± 0.51

row,Sequence,gcPBM binding intensity (ln)
1,AACAATAAAAATAATTGTACAAGTTTAAAAAAAATT [XGTACX_site1987],8.64 ± 0.38
2,TCTTTAAATTTCTCAACACACAGTTATAAAAAATAA [CACACA_site2856],8.31 ± 0.42
3,CATTTAAGACAAATTACACACGTATGCCAAATATAT [CACACA_site431],8.83 ± 0.54
4,TTTTTAATTTCAATGGTGCAGTAATAATATAATAGT,9.31 ± 0.35
5,ATATTTTTTTTTGTTAGTACTCATATTTGTAGTTTT [XGTACX_site7280],8.8 ± 0.46
6,AATATATATAATTATAGTACAGAAAATTAAAAAAGA [XGTACX_site2943],8.88 ± 0.32
7,TAGATTTTTTAATGTTGTACAAATATACGATATATA [XGTACX_site3258],8.57 ± 0.3
8,TTGTTTCTCTTTAAAAGTACAAAAATGGTTACATAT [XGTACX_site3109],8.46 ± 0.25
9,ACATCAAGCAGACACACACACACACGCACACGCACA [CACACA_site6309],8.65 ± 0.52
10,ACTATTCATGCATATACACACACATATATATATATT [CACACA_site9309],9.11 ± 0.4
11,TATATATATATATATATATATATATATATATGTTGT [TGCATGCA_negctrl_site24],10 ± 0.49
12,ACTTTAAACAAAAAAAGTACTCTTTAATGAATATAT [XGTACX_site7176],8.35 ± 0.4
13,CAATTTCTCTTAATTTGTACATATATGTTATACAAA [XGTACX_site3231],8.61 ± 0.3
14,CAATATTTTATTTAAGCATGCTCTAGGGTGTAAAAG [TGCATGCA_site1001],8.72 ± 0.43
15,CTCAACAAAATATGAGTGCATTGTTATTACATATAT,8.68 ± 0.23
16,AACATTAAAAGGGATACACACATATAAATAAATAAT [CACACA_site489],8.85 ± 0.44
17,TAGATATATAATTTTTGTACGTAGTCGAATCTCAGA [XGTACX_site765],8.43 ± 0.34
18,TTATATATTTCTACTCATATTACAATGTGAGAAATA [CACACA_negctrl_site873],8.2 ± 0.38
19,AAATATATATAAAAGTGTACATTTGTTATAATCAGT [XGTACX_site4822],8.79 ± 0.35
20,CCAACTAAAAAGGAATGTACATAGTTATGGTTGGAA [XGTACX_site8762],9.04 ± 0.47
21,ATCAAAAAAAAAAAAAGTACACAAAATTTTTTATTA [XGTACX_site7986],8.45 ± 0.22
22,ATAATGAACAAAGTAGTGCACTTTCCTTATCTTTTC,8.94 ± 0.15
23,AAGGTTTAAAATTACTGTACAAATATAAATAAATAT [XGTACX_site3756],8.58 ± 0.35

row,Sequence,gcPBM binding intensity (ln)
1,TATATGTGTGTTATATGTACTTATATATATATATAT [XGTACX_site5570],10.1 ± 0.37
2,TACATATTTAAATACTGTACTCAAAAGAATTGTGCA [XGTACX_site2250],8.72 ± 0.2
3,ACTAATATGTATATATATATATATATATATATATAT [CACACA_negctrl_site141],9.96 ± 0.67
4,TATATTATACTAAGAAGTACAATATTTTTATTGTAA [XGTACX_site2810],8.06 ± 0.085
5,AAATTCCACGAACACACACACATATAAATAAATAAA [CACACA_site6697],8.59 ± 0.53
6,TAGTAAAAACCAAAATGTACATGTGCCATTTTTTTA [XGTACX_site2630],8.41 ± 0.35
7,TATAGTATTCTAAATGCATGTAAATTATGTATATAT [TGCATGCA_site931],8.96 ± 0.42
8,GTTTATCACAGCCACGCACACATAATATCTGTATAT [CACACA_site5929],8.77 ± 0.37
9,GATTATTAATAGTAACGTACATATGTTATAAAATAT [XGTACX_site5277],8.72 ± 0.38
10,CTTATATTGTACAGTACACACCTTTATAATGTTATT [CACACA_site4280],8.93 ± 0.35
11,TAATTTTTCCTTTTTGCACACATTAACGTCGACGAA [CACACA_site4025],8.77 ± 0.27
12,CAATTTATTTTTATTACACACTATCCAAATAATTTC [CACACA_site2956],8.5 ± 0.38
13,AGCATACATATTTTTTGTACATATATATATATATAT [XGTACX_site8536],10.2 ± 0.28
14,TTAAACAATTTAGACATACACACAAAAATAATATTA [CACACA_site385],8.51 ± 0.41
15,AACATACGACAATACGCACACATATATGTACATATT [CACACA_site1917],8.78 ± 0.3
16,TATATAATAATTTAGAGTACTGATAAAATATTCCAT [XGTACX_site6200],8.34 ± 0.3
17,CCATAAAATCATAAGCGTACTTAATATATTTTACTT [XGTACX_site559],8.59 ± 0.32
18,TGCTCCTATTATATAGTGCATTTATTTTAATAAACG,8.39 ± 0.24
19,TAATTTATAAAAAATTGTACATTAAACATATATATA [XGTACX_site5164],8.45 ± 0.4
20,AACCTTACACAAGGGGTGCAATATTATTTCGATAAA [GTGCAC_site9600],9.21 ± 0.69
